Measured values reported in PubChem BioAssay AID485294 (National Center for Advancing Translational Sciences (NCATS), 2010).
The campaign covered roughly 370,000 compounds. About 150 (0.041%) were called active. Inconclusive results, whose numbers are uncertain, are shown with a selection of clear calls. Calls come from the whole dose curve; as a rule, active = well fitted inhibition curve with a large enough effect; inconclusive = small, poorly fitted or top-dose-only effect; inactive = flat fitted curve, though single readings scatter. No potency is given beside an inconclusive call; the fits are too rough.

Target: Beta-lactamase (Escherichia coli (strain K12)) (UniProt P00811)
Test: qHTS Inhibitors of AmpC Beta-Lactamase (assay with detergent); note: nearly all actives have a fitted effect of over 25% in size
Settings: AmpC hydrolysis of nitrocefin, absorbance 480 nm, 0.01% Triton; series mostly up to 114 µM
Method in brief: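 20 mM phosphate pH 7.0 + 0.01% (detergent screen) or 0.0001% Triton X-100; 5.3 nM AmpC reagent; cpd preinc 15 min RT; nitrocefin (800 uM stock) to start; A480 q20 s × 4 min; Activity was normalised to no-enzyme and no-compound control wells.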
Potency is the fitted concentration of half-maximal effect; tags give direction and shape of the fitted curve.

UniProt P00811, sequence (P00811 whole entry, looked up): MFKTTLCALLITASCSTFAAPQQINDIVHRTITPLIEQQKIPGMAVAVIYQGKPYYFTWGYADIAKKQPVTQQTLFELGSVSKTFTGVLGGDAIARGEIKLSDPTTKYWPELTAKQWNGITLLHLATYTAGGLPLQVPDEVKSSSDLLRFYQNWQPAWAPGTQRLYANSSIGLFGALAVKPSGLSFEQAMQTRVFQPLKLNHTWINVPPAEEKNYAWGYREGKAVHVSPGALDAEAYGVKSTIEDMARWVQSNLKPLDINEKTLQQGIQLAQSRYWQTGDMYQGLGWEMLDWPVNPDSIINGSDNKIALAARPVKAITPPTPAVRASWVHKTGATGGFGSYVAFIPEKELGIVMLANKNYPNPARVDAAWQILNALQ

Compound | Potency
COc1ccc(CCCc2nnc(SCC(=O)Nc3ccc(C)c(C)c3)o2)cc1 | inconclusive [inhibitor, full curve, poor fit]
C=CCSc1nc2sc(-c3ccccc3)cc2c(=O)n1N | inconclusive [inhibitor, single point]
CCCc1c(C)[nH]c2nc3ccccc3n2c1=O | inconclusive [inhibitor, full curve, poor fit]
CC(C)NS(=O)(=O)c1ccc(OCC(=O)N2CCN(c3ccccc3F)CC2)cc1 | inactive
COC(=O)C1CCN(C(=O)c2cc3ccccc3oc2=O)CC1 | inactive
COc1ccc(/C=C(\C#N)C(=O)NCCc2ccccc2)cc1OCc1ccccc1 | inconclusive [inhibitor, full curve, poor fit]
Cc1cc(NC(=O)COC(=O)C(Cc2ccccc2)NC(=O)c2ccco2)no1 (stereo not given) | inconclusive [inhibitor, full curve, poor fit]
O=C(c1cc(COc2cccc3cnccc23)on1)N1CCC(c2ccccc2Cl)C1 (stereo not given) | inconclusive [inhibitor, full curve, poor fit]
O=c1cc(-c2ccccc2)cc(-c2ccccc2)n1CCCO | inconclusive [inhibitor, single point]
Cc1ccc(C(C)C)c(OCC(=O)Nc2ccc(N3CCOCC3)cc2N2CCOCC2)c1 | inconclusive [inhibitor, partial curve, poor fit]
O=C(c1ccc2c(=O)n3c(nc2c1)CCCCC3)N1CCN(C(c2ccccc2)c2ccccc2)CC1 | inactive
CC(=O)N1CCN(C(=O)c2ccc(-c3cccc(C(F)(F)F)c3)o2)CC1 | inconclusive [inhibitor, full curve, poor fit]
O=C(NCCc1cnccn1)C1CCC(=O)N(Cc2ccc(Cl)cc2)C1 (stereo not given) | inactive
NS(=O)(=O)c1ccc(CCNc2ccnc3cc(Cl)ccc23)cc1 | inactive
COc1ccc2[nH]c(=O)c(CN(Cc3ccccc3OC)Cc3nnnn3CC3CCCO3)cc2c1 (stereo not given) | inconclusive [inhibitor, full curve, poor fit]
CN(c1ccc(C(=O)O)cc1)S(=O)(=O)c1ccc(Cl)cc1 | inconclusive [inhibitor, full curve, poor fit]
CC1CCC(NC(=O)Cn2ncc3ccccc32)CC1 (stereo not given) | inconclusive [inhibitor, partial curve, poor fit]
O=C(O)CCS(=O)(=O)c1cccc2cccnc12 | inconclusive [inhibitor, full curve, poor fit]
CCN(Cc1ccccc1)C(=O)Cn1c(C(C)O)nc2ccccc21 (stereo not given) | inconclusive [inhibitor, full curve, poor fit]
CCC(C)(c1ccc(C=O)s1)c1ccc(C=O)s1 | inconclusive [inhibitor, full curve, poor fit]

Compound | Potency
COc1cc([C@H]2c3[nH]c4ccccc4c3C[C@H]3C(=O)N4[C@@H](c5cc(OC)c(OC)c(OC)c5)c5[nH]c6ccccc6c5C[C@H]4C(=O)N23)cc(OC)c1OC | inactive
CCN(CC(=O)Nc1ccc(C(C)=O)cc1)CC(=O)Nc1ccccc1C(F)(F)F | inactive
COC(=O)c1ccc(C(=O)Nc2ccc(N)cc2N)cc1 | inconclusive [inhibitor, full curve, poor fit]
O=C(NCc1nnnn1-c1cccc(F)c1)c1ccc(S(=O)(=O)N2CCOCC2)cc1 | inconclusive [inhibitor, full curve]
CNS(=O)(=O)c1cc(C(=O)OCC(=O)NC2CCCc3ccccc32)ccc1Cl (stereo not given) | inconclusive [inhibitor, partial curve, poor fit]
COCC(C)n1c(SCC(=O)NC(=O)Cc2ccccc2)nc2ccccc2c1=O (stereo not given) | inactive
C=CCn1c(SCC(=O)c2ccc(Br)cc2)nnc1C(CC(C)C)NC(=O)c1cccs1 (stereo not given) | inconclusive [inhibitor, full curve, poor fit]
CCCC(C(=O)NC1CCCC1)N(Cc1ccc(OC)cc1)C(=O)c1snc(C(N)=O)c1N (stereo not given) | inactive
COc1ccc2c(c1)C(=O)N(CCc1ccc(S(=O)(=O)NC(=O)NC3CCCCC3)cc1)C(=O)C2(C)C | inconclusive [inhibitor, partial curve, poor fit]
COc1ccccc1NC(=S)NC(NC(=O)c1ccco1)C(Cl)(Cl)Cl (stereo not given) | inconclusive [inhibitor, single point]
CCn1c(N)c(C(=O)NCCOC)sc1=S | inactive
NC(=O)c1ccc(NC(=O)COc2ccc(-n3cnnn3)cc2)cc1 | inconclusive [inhibitor, full curve, poor fit]
CC(C)(C)n1nc2c(c1NC(=O)c1cc3ccccc3o1)CSC2 | inconclusive [inhibitor, full curve, poor fit]
COc1cccc(C2C(C(C)=O)=C(O)C(=O)N2CCc2c[nH]c3ccccc23)c1 (stereo not given) | inconclusive [inhibitor, single point]
O=C(c1ccc(CSc2nc3ccncc3n2Cc2ccccc2F)cc1)N1CCCCC1 | inactive
CCN(CC)C(=O)c1cnn(-c2ccccc2)c1NC(=O)c1ccccc1F | inconclusive [inhibitor, partial curve, poor fit]
Cc1ccc(C(=O)NC=C(Cl)Cl)cc1 | inconclusive [inhibitor, full curve]
COc1cc(NC(=O)C2CCC(CNc3c(N4CCC(C)CC4)c(=O)c3=O)CC2)cc(OC)c1 (stereo not given) | inconclusive [inhibitor, partial curve, poor fit]
Cc1cc(C)nc(NC(=S)NC(=O)c2ccccc2)n1 | inconclusive [inhibitor, full curve, poor fit]
Cc1cccc(N2CCN(C(=O)CCN3C(=O)C4C5C=CC(C5)C4C3=O)CC2C)c1 (stereo not given) | inconclusive [inhibitor, single point]
